# Results taken from PMC4336329 (PLoS ONE, 2015).
# About 2,200 (0.71%) of roughly 310,000 compounds showed an effect of 50% or more. The effect is printed as a negative number. This is one part of the list.
# Target: human ether-à-go-go-related gene (hERG) potassium channel (human, UniProt Q12809)
# Experiment: primary screen, population patch clamp on CHO cells stably expressing hERG
# Sequence of human ether-à-go-go-related gene (hERG) potassium channel (Q12809 whole entry, looked up): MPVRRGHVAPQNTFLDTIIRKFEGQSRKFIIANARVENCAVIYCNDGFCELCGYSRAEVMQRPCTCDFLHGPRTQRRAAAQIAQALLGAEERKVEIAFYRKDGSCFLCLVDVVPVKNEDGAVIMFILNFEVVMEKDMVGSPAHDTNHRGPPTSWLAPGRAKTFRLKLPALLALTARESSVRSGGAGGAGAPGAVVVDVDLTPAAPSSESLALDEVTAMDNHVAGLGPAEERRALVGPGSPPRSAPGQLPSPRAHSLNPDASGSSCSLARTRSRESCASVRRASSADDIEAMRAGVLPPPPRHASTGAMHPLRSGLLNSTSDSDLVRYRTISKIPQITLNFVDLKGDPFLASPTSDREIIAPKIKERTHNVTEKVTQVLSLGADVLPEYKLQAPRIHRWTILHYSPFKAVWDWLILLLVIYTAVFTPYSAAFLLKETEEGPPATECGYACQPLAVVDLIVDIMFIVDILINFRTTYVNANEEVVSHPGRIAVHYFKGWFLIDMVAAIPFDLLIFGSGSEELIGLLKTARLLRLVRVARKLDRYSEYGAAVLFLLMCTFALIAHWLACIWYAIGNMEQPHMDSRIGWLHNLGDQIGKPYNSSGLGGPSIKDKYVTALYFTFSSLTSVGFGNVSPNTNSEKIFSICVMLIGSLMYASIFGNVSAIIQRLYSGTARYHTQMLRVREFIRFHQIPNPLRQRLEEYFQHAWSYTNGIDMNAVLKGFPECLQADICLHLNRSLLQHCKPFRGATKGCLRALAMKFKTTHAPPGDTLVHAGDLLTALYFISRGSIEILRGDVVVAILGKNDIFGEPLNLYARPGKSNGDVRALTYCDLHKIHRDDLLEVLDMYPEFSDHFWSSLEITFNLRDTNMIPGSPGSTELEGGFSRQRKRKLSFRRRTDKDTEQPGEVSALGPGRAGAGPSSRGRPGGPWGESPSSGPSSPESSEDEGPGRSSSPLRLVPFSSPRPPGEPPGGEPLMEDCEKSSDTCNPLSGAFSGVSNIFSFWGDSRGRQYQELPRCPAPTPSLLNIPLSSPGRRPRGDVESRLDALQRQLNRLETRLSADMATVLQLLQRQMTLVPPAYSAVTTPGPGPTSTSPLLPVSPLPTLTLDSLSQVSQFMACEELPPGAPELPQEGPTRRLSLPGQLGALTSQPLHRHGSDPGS
row,SMILES,"hERG current change (%, negative = inhibition) at 1uM [%]"
1,O=C1CS/C(=N/N=C2C3CC4CC(C3)CC2C4)N1,-4.65
2,C=CCNC(=O)C1CC1(c1cccc(C)c1)c1cccc(C)c1 (stereo not shown),9.37
3,Cc1ccc(-c2nn(CC(=O)NCc3cc(-c4nn(C)c(=O)c5ccccc45)ccc3C)c(=O)c3ccccc23)cc1,-17.1
4,COc1ccc(Cn2c(=O)[nH]c3cc(C(=O)N4CCN(c5ccccc5OC)CC4)ccc3c2=O)cc1,4.08
5,C/C(=N\Nc1nc2ccccc2[nH]1)c1ccc(C)o1,8.2
6,COc1cc(NC(=O)C2CCCO2)c(C(=O)O)cc1OC (stereo not shown),11.6
7,CC(C)(C)NC(=O)c1ccc(Cn2cc(C(F)(F)F)ccc2=O)cc1,14.7
8,N/C(=N\OC(=O)c1ccc(Cl)c(Cl)c1)c1cccc(CSc2ccccn2)c1,6.15
9,NC(=S)N/N=C/c1c[nH]c2ccccc12,-0.424
10,Cc1ccc(-n2ncc3c(=O)n(CC(=O)NC4CCCCC4)cnc32)cc1C,13.5
11,CCNc1nc(Oc2ccc(=O)n(C)n2)nc(N2CCOCC2)n1,2.51
12,Cc1cc(NC(=O)CC(C)C)c(=O)n(Cc2c(F)cccc2Cl)c1,4.91
13,O=C(Nc1ccccn1)c1ccc(C(=O)Nc2ccccn2)cc1,12
14,Cc1cc(C(=O)N/N=C/c2cc(Br)c(Br)o2)n[nH]1,16.9
15,C#CC[N+]1(CC#Cc2ccc(C)cc2)CCCCC1.[Br-],2.2
16,CCC(C)NC(=O)c1c(N)n(Cc2ccc3c(c2)OCO3)c2nc3ccccc3nc12 (stereo not shown),-8.79
17,Cc1ccc(NC(=O)N2CCC(C(=O)Nc3ccc(C)cc3C)CC2)cc1,16.7
18,Cc1ccc(S(=O)(=O)NN=C2C3CC4CC(C3)CC2C4)cc1,10.8
19,N#Cc1cccn1-c1nccs1,7.58
20,COc1ccc2ccccc2c1CN1CCN(C(=O)c2ccccc2)CC1,-1.78

row,SMILES,"hERG current change (%, negative = inhibition) at 1uM [%]"
1,N#C/C(=C\c1cc(Cl)cc(Cl)c1O)C(=O)NC1CCCCC1,-9.47
2,COc1ccc(C(=O)N2CCCc3ccccc32)cc1OC,15
3,Cc1ccc(N(CCC#N)C(=O)COC(=O)C2CCN(S(=O)(=O)c3ccc(C)c(C)c3)CC2)cc1,10.4
4,COc1ccc(C(=O)NC2=NCCS2)cc1S(=O)(=O)N1CCCCC1C (stereo not shown),3.41
5,COc1ccc(CCNC(=O)CSc2ccc(-c3ccco3)nn2)cc1,10.1
6,O=C(NCCO)NC(=S)c1ccccc1,0.517
7,Cc1ccc(NC(=O)COC(=O)C2CC2C)c(S(=O)(=O)N2CCCCC2)c1 (stereo not shown),-5.49
8,COc1cccc(C(=O)CC(=O)C(=O)Nc2cc(OC)ccc2OC)c1,12
9,COc1ccc2cc(-c3cc(C(=O)OCC(=O)NC4CCS(=O)(=O)C4)c4ccccc4n3)ccc2c1 (stereo not shown),13.9
10,COc1cccc(OCC(=O)N(C)Cc2nc(-c3ccccc3)no2)c1,10.2
11,O=C(Nc1cccc(S(=O)(=O)N2CCCC2)c1)c1ccc2ccccc2n1,3.9
12,Cc1cc(C(=O)N/N=C2\CC(=O)CC(C)(C)C2)c(C)n1-c1ccc(F)cc1,12.6
13,Cc1ccnc(NC(=O)Nc2cccc(F)c2)c1,4.31
14,CC(C/C=N/NC(=O)COc1cc(Cl)ccc1Cl)c1ccccc1 (stereo not shown),7.65
15,COc1cc(C(=O)NCC(=O)NCCCSc2ccccc2)cc(OC)c1OC,4.52
16,Cc1ccc(C)c2sc(NC(=O)CN3C(=O)CCC3=O)nc12,9.72
17,CC(=O)NNC(=O)CCn1nnc2ccccc21,12
18,CCOC(=O)Cn1c(CN2CCN(C(c3ccccc3)c3ccccc3)CC2)nc2c1c(=O)n(C)c(=O)n2C,4.93
19,O=C(CNC(=O)c1ccc(Br)o1)Nc1cccc(S(=O)(=O)N2CCOCC2)c1,13
20,O=C(CN1CCN(Cc2ccccc2)CC1)NCC1COc2ccccc2O1 (stereo not shown),-0.645

row,SMILES,"hERG current change (%, negative = inhibition) at 1uM [%]"
1,CCOc1ccc(NC(=O)CSc2nnc(Cc3ccccc3)c(=O)n2N)cc1,18.5
2,O=C1c2ccccc2C(=O)N1CCn1ccnc1,17.7
3,Clc1ncnc2scc(C3COc4ccccc4O3)c12 (stereo not shown),19.4
4,COCCSc1ccccc1C(=O)N1CCCC1,12.8
5,COc1ccc(Cl)cc1NC(=O)CN(C)C(=O)c1cc2ccccc2cc1OC,17.8
6,CC(C)N(C(=O)Cn1c(-c2ccccc2Cl)nc2ccccc21)c1ccccc1,4.69
7,O=C(/C=C/c1ccc(Cl)cc1)NC1CCS(=O)(=O)C1 (stereo not shown),-6.04
8,Cc1sc2ncnc(Sc3nnc4sc5ccccc5n34)c2c1C,8.6
9,CN1C(C(=O)NCCc2cccs2)CC2Cn3c(nc4ccccc43)C21 (stereo not shown),-1.47
10,CCOC(=O)C1=C(C)NC(SCC(=O)Nc2cc(C)on2)=C(C#N)C1c1cccs1 (stereo not shown),17.9
11,COc1nc(-c2ccccc2)ccc1-c1noc(-c2ccccc2)n1,8.33
12,CCOC(=O)C1(CCCc2ccccc2)CCN(C(=O)CCN2CCCCC2=O)CC1,-26.3
13,COc1ccc(C(=O)COC(=O)c2ccccc2O)c(OC)c1,11.6
14,CCOC(=O)C1CCN(CCC(=O)Nc2ccc(Br)c(C)c2)CC1,-33.7
15,Cc1ccc(-c2noc(CCC(=O)NC3CC3)n2)cc1,1.5
16,CN=c1sc2ccccc2n1CC(O)COc1ccccc1 (stereo not shown),-2.36
17,COc1ccc2oc(=O)c(C(=O)NCc3ccccc3)cc2c1,2.58
18,COc1cc(/C=C2/C(=O)NN(c3ccc(Cl)c(Cl)c3)C2=O)cc([N+](=O)[O-])c1O,6.69
